Experimental data from PubChem BioAssay AID504832 (National Center for Advancing Translational Sciences (NCATS), 2011).
Among all 310,000 compounds or so, about 18,000 (5.8%) were called active. This list was built around the results that the source calls inconclusive (neither active nor inactive); the mix of calls is not that of the screen. Calls come from the whole dose curve; as a rule, active = well fitted inhibition curve with a large enough effect; inconclusive = small, poorly fitted or top-dose-only effect, or another doubt; inactive = no such curve, though single readings can be large or run the other way. No potency is given beside an inconclusive call; the fits are too rough.

Assay: Primary qHTS for delayed death inhibitors of the malarial parasite plastid, 48 hour incubation
Conditions: P. falciparum luciferase growth in erythrocytes; series mostly up to 28.7 µM
How it was run: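 Compounds are pin-transferred into medium, infected erythrocytes (2% hematocrit, 0.1% parasitemia final) are added, and plates sit one parasite generation at 37 C in 5% CO2. Detection reagent is then added and luminescence measured.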
Potency is the fitted concentration of half-maximal effect; tags give direction and shape of the fitted curve.

SMILES	Potency
COc1ccc(N2CCN(Cc3nc(N)nc(Nc4ccc(C)c(Cl)c4)n3)CC2)cc1	inconclusive [inhibitor, partial curve, poor fit]
c1ccc(C2CCC(N3CCN(c4ccccc4)CC3)CC2)cc1 (configuration not stated)	inactive
O=C(NCCN1C(=O)S/C(=C\c2cccnc2)C1=O)c1cc(S(=O)(=O)N2CCOCC2)ccc1F	inactive
CN(CC(=O)Nc1ccc(F)cc1)C(=O)COC(=O)CCN1C(=O)C2CC=CCC2C1=O (configuration not stated)	inactive
CCOc1ccc(N)cc1OC	inconclusive [inhibitor, partial curve, poor fit]
CC(C)CCNC(=O)C1CCC(CNc2c(N3CCCC3)c(=O)c2=O)CC1 (configuration not stated)	active: 11.7 µM
CCN(CC(=O)NCc1ccc(F)cc1)Cc1nc2ccccc2c(=O)[nH]1	inconclusive [inhibitor, partial curve]
CCCCN(CCCC)C(=O)/C=C/c1cccc([N+](=O)[O-])c1	inconclusive [inhibitor, single point]
CC(C)(C)c1ccc(/C=C/C(=O)c2ccc(NC3=NCCCS3)cc2)cc1	active: 16.5 µM
CC(C)CCNC(=O)c1ccccc1SCC(=O)NC1CCCCCCC1	inconclusive [inhibitor, partial curve]
COc1cc(OC)cc(-c2c(-c3cccs3)c3cc(-c4ccc(OC)cc4F)ccc3n2C)c1	active: 13.1 µM
Cc1cccc(NC(=O)C(C)C(=O)c2ccccc2)c1 (configuration not stated)	inconclusive [inhibitor, partial curve, poor fit]
COc1ccc2c(c1)[C@H]1[C@H](CO2)[C@H](c2ccccc2)[C@]2(C)C(=O)N[C@@H](C)C(=O)N12	inactive
O=C(NC1CCCCC1)N(CCN1CCCC1)Cc1cc2cc3c(cc2[nH]c1=O)OCCO3	inconclusive [inhibitor, single point]
CN(Cc1nc2ccccc2c(=O)[nH]1)C(=O)c1ccccc1OCc1ccc(Cl)cc1	inconclusive [inhibitor, single point]
Cc1ccccc1OCCOC(=O)c1ccc(S(=O)(=O)N2CCCC2)cc1	inconclusive [inhibitor, single point]
CCC1(c2ccccc2)NC(=O)N(CC(=O)Nc2cc(C(F)(F)F)ccc2N2CCCC2)C1=O (configuration not stated)	inconclusive [inhibitor, partial curve]
NCCCCCc1cn([C@@H](CO)C(=O)NCCCCCCCCCCC(=O)N2CCNCC2)nn1	inconclusive [inhibitor, single point]
O=C(CSc1nnc(-c2ccccn2)n1Cc1ccccc1)NC1CCCC1	active: 8.28 µM
NC(=O)c1ccc(C[C@H](C(=O)O)N2C(=O)c3ccc(C(=O)O)cc3C2=O)cc1	inactive
COc1ccc(Cl)cc1NC(=O)C1CC(=O)N(c2ccc(F)cc2)C1 (configuration not stated)	inactive

SMILES	Potency
COc1ccc(CC(=O)N/N=C/c2cccn2-c2ccc([N+](=O)[O-])cc2)cc1OC	inconclusive [inhibitor, partial curve, poor fit]
CCN1CCc2c(sc(NC(=O)c3ccc(S(=O)(=O)N(C)c4ccccc4)cc3)c2C(=O)NC)C1	active: 2.08 µM
Cc1ccc(Cl)cc1N1CCN(S(=O)(=O)c2ccc3c(c2)oc(=O)n3C)CC1	inconclusive [inhibitor, full curve, poor fit]
CCN(CC)S(=O)(=O)c1ccc(NC=C(C#N)C#N)cc1	inactive
Cn1c(-c2ccsc2)c(-c2cccs2)c2cc(-c3ccc4[nH]ccc4c3)ccc21	active: 5.22 µM
O=C(COc1coc(CN2CCN(c3cccc(Cl)c3)CC2)cc1=O)NC1CCCC1	active: 9.28 µM
CCCCc1nnc(NC(=O)c2ccc(S(=O)(=O)N3CCOCC3)cc2)s1	inconclusive [inhibitor, single point]
COc1ccc(NS(=O)(=O)c2cccc(C(=O)NCC(c3ccco3)N(C)C)c2)cc1 (configuration not stated)	inconclusive [inhibitor, single point]
CCOc1ccccc1N(C)C(=O)c1sc2ncn(CC(=O)N3CCCCC3C)c(=O)c2c1C (configuration not stated)	inconclusive [inhibitor, single point]
CN1C(=O)/C(=C/c2cc(C(C)(C)C)c(O)c(C(C)(C)C)c2)NC1=S	inconclusive [inhibitor, single point]
CC(C)N(CCNC(=O)C1CCC(=O)N1Cc1ccc(F)cc1)Cc1ccccc1 (configuration not stated)	inconclusive [inhibitor, partial curve]
COc1cc(/C=N/NC(=O)CN(CCc2ccccc2)S(=O)(=O)c2ccc(NC(C)=O)cc2)cc(OC)c1OC	inconclusive [inhibitor, partial curve, poor fit]
Cc1ccc(NC(=S)NNC(=O)Cn2nc([N+](=O)[O-])cc2C)cc1	inconclusive [inhibitor, partial curve, poor fit]
CN(C(=O)Nc1ccc(C(C)(C)C)cc1)C1CCCCC1	inactive
CCn1c(SCC(=O)c2ccc(O)c(O)c2)nnc1-c1ccccc1	inconclusive [inhibitor, single point]
N#Cc1nc(-c2ccc(OCc3ccccc3)cc2)oc1NCCCN1CCOCC1	inconclusive [inhibitor, single point]
COc1ccc2oc(C(=O)OCC(=O)N(Cc3ccccc3)C(C)(C)C)c(C)c2c1	inconclusive [inhibitor, full curve, poor fit]
COc1ccc(-c2cc(C(=O)N3CCOCC3)c3ccccc3n2)cc1OC	inconclusive [inhibitor, partial curve, poor fit]
COCc1cc(C)nc(SCC(=O)Nc2ccc3c(c2)n(C)c(=O)n3C)c1C#N	inactive
CC(C)OC(=O)c1ccc(N2CCN(c3ccc(F)cc3)CC2)nc1	inconclusive [inhibitor, single point]
Cn1nc(C(=O)NNC(=O)CCc2ccccc2Cl)c2ccccc2c1=O	inconclusive [inhibitor, single point]
